In series [1] the target is T1, Peptide 10: EDPIYVTLEGGKKK (version of peptide 2 used for the kinetic experiments).
T1 chain: EDPIYVTLEGGKKK

Series [2] deals with T2, Peptide 11: DEAIYATVAGGKKK (version of peptide 5 used for the kinetic experiments).
T2 chain: DEAIYATVAGGKKK

B1: Human ABL (purchased from Life Technologies) (protein)
chain: MLEICLKLVGCKSKKGLSSSSSCYLEEALQRPVASDFEPQGLSEAARWNSKENLLAGPSE[letters of about 60 residues not shown]LEKHSWYHGPVSRNAAEYLLSSGINGSFLVRESESSPGQRSISLRYEGRVYHYRINTASDGKLYVSSESRFNTLAELVHHHSTVADGLITTLHYPAPKRNKPTVYGVSPNYDKWEMERTDITMKHKLGGGQYGEVYEGVWKKYSLTVAVKTLKEDTMEVEEFLKEAAVMKEIKHPNLVQLLGVCTREPPFYIITEFMTYGNLLDYLRECNRQEVNAVVLLYMATQISSAMEYLEKKNFIHRDLAARNCLVGENHLVKVADFGLSRLMTGDTYTAHAGAKFPIKWTAPESLAYNKFSIKSDVWAFGVLLWEIATYGMSPYPGIDLSQVYELLEKDYRMERPEGCPEKVYELMRACWQWNPSDRPSFAEIHQAFETMFQESSISDEVEKELGKQGVRGAVSTLLQAPELPTKTRTSRRAAEHRDTTDVPEMPHSKGQGESDPLDHEPAVSPLLPRKERGPPEGGLNEDERLLPKDKKTNLFSALIKKKKKTAPTPPKRSSSFREMDGQPERRGAGEEEGRDISNGALAFTPLDTADPAKSPKPSNGAGVPNGALRESGGSGFRSPHLWKKSSTLTSSRLATGEEEGGGSSSKRFLRSCSASCVPHGAKDTEWRSVTLPRDLQSTGRQFDSSTFGGHKSEKPALPRKRAGENRSDQVTRGTVTPPPRLVKKNEEAADEVFKDIMESSPGSSPPNLTPKPLRRQVTVAPASGLPHKEEAGKGSALGTPAAAEPVTPTSKAGSGAPGGTSKGPAEESRVRRHKHSSESPGRDKGKLSRLKPAPPPPPAASAGKAGGKPSQSPSQEAAGEAVLGAKTKATSLVDAVNSDAAKPSQPGEGLKKPVLPATPKPQSAKPSGTPISPAPVPSTLPSASSALAGDQPSSTAFIPLISTRVSLRKTRQPPERIASGAITKGVVLDSTEALCLAISRNSEQMASHSAVLEAGKNLYTFCVSYVDSIQQMRNKFAFREAINKLENNLRELQICPATAGSGPAATQDFSKLLSSVKEISDIVQR
For the protein B1, in series [1], the 2/5 kcat/Km ratio (peptide 2 against peptide 5) turned out to be 0.13, the Km was over 200 µM, the kcat is over 4 s⁻¹ and the kcat/Km was determined as 20100 M⁻¹ s⁻¹. Also, in series [2], the Km was determined as 101 µM, the kcat came out at 16.5 s⁻¹ and the catalytic efficiency (kcat/Km) came out at 160000 M⁻¹ s⁻¹.
